Experimental data taken from patent US20250092109A1 (XILIO DEVELOPMENT, published 2025).
Values belong to the binder of their own block, whether it stands above or below them.

Target: PD-1 (UniProt Q15116 25-288, limits assumed)
Assay: cell-based or functional assay

Chain of UniProt Q15116 (Q15116 25-288 limits assumed): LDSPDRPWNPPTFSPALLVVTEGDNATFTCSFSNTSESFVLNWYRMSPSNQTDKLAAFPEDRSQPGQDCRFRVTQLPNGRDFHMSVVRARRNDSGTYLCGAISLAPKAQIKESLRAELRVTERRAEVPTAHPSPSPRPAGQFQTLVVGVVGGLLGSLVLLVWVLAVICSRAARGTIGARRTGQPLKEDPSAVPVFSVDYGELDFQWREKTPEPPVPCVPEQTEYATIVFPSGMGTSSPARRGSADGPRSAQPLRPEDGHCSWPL

EC50, PD-1/PD-L1 Blockade Bioassay (fold induction of luminescence, TCR signaling): 1.46
B1: C6 (Fc fusion)
chain 1: [not shown - about 150 residues]
chain 2: EVQLVESGGGLVQPGGSLRLSCAASGSIFSINVMGWYRQAPGKQRELVAAISSGGSTNYADSVKGRFTISRDNAKNTVYLQMNSLKPEDTAVYYCMYASSWYEDETDYWGQGTQVTVSS

EC50, PD-1/PD-L1 Blockade Bioassay (fold induction of luminescence, TCR signaling): 1.29
B2: C5 (Fc fusion)
chain 1: [not shown - about 150 residues]
chain 2: EVQLVESGGGLVQPGGSLRLSCAASGSIFSINVMGWYRQAPGKQRELVAAISSGGSTNYADSVKGRFTISRDNAKNTVYLQMNSLKPEDTAVYYCMYASSWYEDETDYWGQGTQVTVSSAAA
